The whole screen tested about 45,000 compounds, of which about 65 (0.1%) were called active. The call rests on the fitted dose curve; in most records, active means well fitted activation curve with a large enough effect; inconclusive means small, poorly fitted or top-dose-only effect; inactive means no such curve, though single readings can be large or run the other way. Some of the results follow.
Target: Galactocerebrosidase (Homo sapiens) (UniProt P54803)
Test: A Novel Cell-Based Assay to Identify Small Molecules for B -Galactocerebrosidase; further: 0% is about no effect; nearly all actives have a fitted effect of over 65% in size
Details: 145M-Twi-hGALC-G270D cells (Twitcher mouse brain line with human GALC G270D), HMU-beta-Gal fluorescence, 48 h; series mostly up to 57.5 µM; activation: at the top concentration
How it was run: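 Live 145M-Twi cells (Twitcher mouse brain-derived, GALC-null) stably expressing human GALC-G270D, with a wild-type GALC line, were compound-treated. Residual GALC activity was then read as fluorescence from 0.1 mM final HMU-β-gal at pH 5.2; higher signal means activation.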

Sequence of UniProt P54803 (P54803 whole entry, looked up): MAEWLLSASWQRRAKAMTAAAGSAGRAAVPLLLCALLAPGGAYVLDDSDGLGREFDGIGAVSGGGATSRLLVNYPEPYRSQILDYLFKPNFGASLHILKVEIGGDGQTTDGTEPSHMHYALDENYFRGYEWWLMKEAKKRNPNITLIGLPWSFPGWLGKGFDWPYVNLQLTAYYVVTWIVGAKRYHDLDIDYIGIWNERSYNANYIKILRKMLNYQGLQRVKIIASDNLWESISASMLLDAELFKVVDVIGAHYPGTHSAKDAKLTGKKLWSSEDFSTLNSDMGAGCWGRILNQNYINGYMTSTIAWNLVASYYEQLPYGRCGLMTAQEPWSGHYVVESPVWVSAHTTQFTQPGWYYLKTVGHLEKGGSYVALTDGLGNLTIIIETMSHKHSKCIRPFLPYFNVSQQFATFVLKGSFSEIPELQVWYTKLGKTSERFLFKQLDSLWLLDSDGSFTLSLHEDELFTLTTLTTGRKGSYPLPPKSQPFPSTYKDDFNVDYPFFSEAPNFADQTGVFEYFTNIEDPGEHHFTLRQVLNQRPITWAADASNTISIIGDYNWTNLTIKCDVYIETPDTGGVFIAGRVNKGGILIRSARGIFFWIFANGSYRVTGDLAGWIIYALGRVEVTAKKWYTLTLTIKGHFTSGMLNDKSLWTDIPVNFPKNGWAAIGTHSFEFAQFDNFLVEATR

activation, inactive:
Cc1ccc(C(=O)Nc2ccc(C(=O)OCc3cc(=O)n4nc(C5CC5)sc4n3)cc2)cc1 7.75%
CC(=O)Nc1cccc(NC(=O)CSc2cn(CC(=O)N(C(C)C)C(C)C)c3ccccc23)c1 -17.2%
CCOc1cc(CNC(=O)CCCn2c(=O)c3cccn3c3cccnc32)cc(OCC)c1OCC 0.178%
CCc1ccccc1NC(=O)CSc1ncc(S(=O)(=O)c2ccccc2)c(N)n1 -1.19%
COc1ccc(CCNC(=O)c2cc(Nc3cc(C)cc(C)c3)nc3ccccc23)cc1OC -8.36%
Cc1cccc(N(CC(=O)NCCSCc2ccc(Cl)cc2)S(C)(=O)=O)c1C -7.65%
COc1cccc(CNC(=O)C2CCN(c3nn4c(=O)cc(C)nc4s3)CC2)c1 -4.32%
CCN(CC)CCOC(=O)C1(c2ccccc2)CCCC1 -12.3%
O=C(NCCCN1CCN(c2cccc(Cl)c2)CC1)Nc1ccccc1C(F)(F)F -3.45%
O=C(NC1CC(=O)N(c2ccccc2)C1)c1ccc(Br)o1 (stereo not given) -4.68%
COc1ccccc1Cn1c(CNS(=O)(=O)c2ccccc2Cl)nc2cccnc21 -4.78%
CC(=O)c1cccc(NC(=O)c2cccn2-c2nnc(N3CCCCC3)s2)c1 -23.1%
CCOc1ccc(NC(=O)c2cc3c(n(-c4ccc(OC)cc4)c2=O)CC(C)(C)CC3=O)cc1 -10.2%
COc1ccc(NC(=O)CN2C(=O)COc3ccc(S(=O)(=O)Nc4ccccc4)cc32)cc1OC -7.15%
O=C(COCc1cc(-c2cccs2)on1)Nc1cccc(Cl)c1Cl -9.49%
Cc1c(Cl)cccc1Nc1nn2c(=O)c3ccc(C(=O)NCCc4ccccc4)cc3nc2s1 -14.7%
CCN(c1cccc(C)c1)S(=O)(=O)c1ccc2c(c1)NC(=O)CCS2 13.2%
CCOC(=O)c1ccc2c(c1)N(CC(=O)Nc1ccc(C)cc1C)C(=O)c1ccccc1S2 1.19%
CCN(CC)C(=O)Cn1cc(SCC(=O)Nc2ccccc2F)c2ccccc21 -14.7%
COc1ccc(NC(=O)c2nnn(Cc3nc(-c4cc(OC)c(OC)c(OC)c4)oc3C)c2C)cc1 -5.86%
CCOC(=O)Cn1c(=O)oc2cc(S(=O)(=O)N3CCN(c4ccccc4F)CC3)ccc21 -17%
CSc1cccc(NC(=O)C2CCN(c3ncnc4c3nc3n4CCCCC3)CC2)c1 3.97%
O=C(c1ccc(F)cc1)N1CCC(c2nc3ccccc3o2)CC1 -10.1%
O=C(NC1CCCCCC1)c1cc2c(Cl)nc3ccccc3c2s1 -1.68%
CCOc1ccccc1NC(=O)C(NS(=O)(=O)c1ccc2c(c1)CCC(=O)N2)c1ccccc1 (stereo not given) -10.9%
N=C(N)N -9.74%
CC(C)NC(=O)CC(=O)Nc1ccc2nc3n(c(=O)c2c1)CCCCC3 -9.64%
COc1ccc(-c2nc(C(N)=O)c3c(n2)n(-c2ccccc2OC)c(=O)n3C)c(OC)c1 -2.66%
O=C(c1ccc2c(c1)N(Cc1ccc(Cl)cc1)C(=O)c1ccccc1S2=O)N1CCN(c2ccccc2F)CC1 (stereo not given) -9.79%
CCOC(=O)c1ccc(NC(=O)C2=C(C)Nc3nc(SCc4ccc(Cl)cc4)nn3C2c2ccc(C)cc2)cc1 (stereo not given) -9.71%
CCCCOc1ccc(C(=O)N2CCC(c3nc4ccccc4o3)CC2)cc1 -19%
Cc1nn(C(=O)COc2ccccc2)c(C)c1Sc1ccccc1 -13.5%
CCOc1ccc(CC(=O)NCCc2csc(-c3ccc(C(F)(F)F)cc3)n2)cc1 -12.2%
CC(C)(C)c1ccc(Oc2nc3ccccn3c(=O)c2/C=C(\C#N)c2nc3ccccc3[nH]2)cc1 -29%
COc1ccc(CNC(=O)c2ccc3c(c2)N(C)C(=O)C2CCCCN32)cc1OC (stereo not given) -20.2%
O=C(CCC(=O)N1CC2CCCN2c2ccccc21)NCc1ccccc1 (stereo not given) -20.1%
CCOC(=O)c1ccc(NC(=O)CCn2c(=O)c3cccn3c3cccnc32)cc1 -10.9%
O=C(Nc1ccc(F)cc1F)c1cc(-c2ccc(Cl)cc2)on1 -9.38%
CCN(CC)C(=O)Cn1c(=O)n(-c2ccc(C)c(C)c2)c(=O)c2c3c(sc21)CCCCC3 -10.3%
CCc1cccc(NS(=O)(=O)c2ccc(-n3cccn3)cc2)c1 -36.6%
CCCCS(=O)(=O)CC(O)CSc1nc(-c2ccc(C)cc2)cc(-c2ccccc2)c1C#N (stereo not given) -10.2%
COc1cccc(C(=O)Nc2cccc(-c3cn4ccsc4n3)c2)c1OC -32.5%
Cc1ccccc1-c1noc(-c2cccnc2N2CCN(c3ccccc3)CC2)n1 1.91%
Cc1cccc(-c2nc3c4ccccc4n(Cc4cccc(Cl)c4)c(=O)n3n2)c1 -1.46%
O=C(CN1C(=O)COc2ccc(S(=O)(=O)N3CCOCC3)cc21)N1CCN(c2cccc(Cl)c2)CC1 1.58%
COc1ccc(NC(=O)c2ccc3c(SCC(=O)O)c4c(nc3c2)CCCC4)c(OC)c1 -5.05%
CCc1ccc(NC(=O)CSc2ccc(-c3ccccn3)nn2)cc1 13%
O=C(NCCCN1CCN(c2ccc(F)cc2)CC1)c1cnn(-c2ccc(F)cc2)c1-n1cccc1 -22.8%
CN(C)CCC=C1c2ccccc2CCc2ccccc21 -15.8%
Cc1ccnc2c1NC(=O)c1cccnc1N2C1CC1 -21%
O=S(=O)(c1ccc(-c2cc(C(F)(F)F)on2)s1)N1CCN(c2ccc(F)cc2)CC1 -2.98%
Cc1cc(Br)ccc1NC(=O)Cn1cc(S(=O)(=O)N2CCN(c3ccccc3F)CC2)c2ccccc2c1=O -7.22%
COc1ccc(NC(=O)C2CCCN(c3ncnc4c3nc3n4CCCCC3)C2)c(OC)c1 (stereo not given) -20.6%
COc1cc(NS(=O)(=O)c2cc3c(cc2C)N(C)CCO3)cc(OC)c1OC -0.786%
C#CCSc1nc(-c2ccccc2)cc(-c2ccccc2)c1C#N -13.1%
Cc1ccc(-n2c3c(cc(-c4nc(-c5ccc(Cl)cc5)cs4)c2=O)C(=O)CC(C)(C)C3)cc1C -12.8%
CCn1cc(C(=O)N2CCN(c3cccc(Cl)c3)CC2)c2cc(OC)c(OC)cc2c1=O -12.7%
Cc1ccc(CN2CCc3nc(Nc4ccc5c(c4)OCCO5)ncc3C2)cc1 -9.28%
CCOc1ccc(CNC(=O)c2cnc3sc(N4CCOCC4)nn3c2=O)cc1 4.6%
CCS(=O)(=O)N1CCc2cc(C(=O)Nc3ccc(C(=O)OC)cc3)ccc21 -11.5%
C#C[C@]1(O)CC[C@H]2[C@@H]3CCc4cc(OC5CCCC5)ccc4[C@H]3CC[C@@]21C -17.2%
CC1=C(c2ccc(C(C)C)cc2)S(=O)(=O)NC1=NCCCN1CCN(c2ccccc2F)CC1 -23.2%
Cc1ccc(C)c(N2CCN(C(=O)CCc3nnc4n(CC(C)C)c(=O)c5ccccc5n34)CC2)c1 -13.9%
CCSc1oc(-c2ccco2)nc1S(=O)(=O)c1ccc(Br)cc1 3.69%
CC(=O)c1ccc(Nc2nc3c(S(=O)(=O)c4ccccc4)nnn3c3ccc(Cl)cc23)cc1 -20.4%
Cc1ccc(NC(=O)Cn2c(=O)c3ccccc3n3nncc23)cc1 -4.67%
Cc1ccc2nc(-c3ccc(O)cc3)c(Nc3ccc(Cl)cc3)n2c1 -16.4%
CCC(=O)N1CCc2cc(S(=O)(=O)NCCC(=O)Nc3cc(C)ccc3OC)ccc21 -17.2%
COc1ccccc1-c1cc2nc(C)c(CCC(=O)O)c(C)n2n1 -11.2%
COc1ccccc1NC(=O)Cn1c(=O)n(CCC(=O)NCC2CCCO2)c(=O)c2cc(OC)c(OC)cc21 (stereo not given) -0.331%
CCCc1cc(=O)[nH]c(SCC(=O)N2CCN(c3ccccc3OC)CC2)n1 -8.68%
COc1cc(NC(=O)c2cc3c(s2)-c2ccccc2OC3)cc(OC)c1OC -31.7%
CCCN(CCC)C(=O)Cn1c(=O)n(-c2ccc(Cl)cc2)c(=O)c2c3c(sc21)CCCCC3 -5.06%
Cc1ccc(-c2nn(-c3ccc(F)cc3)c3c2cnc2cc(F)c(F)cc23)cc1 -8.1%
COC(=O)CCNC(=O)NC(CCC(C)C)c1c(-n2cccc2)sc2c1CCN(C)C2 (stereo not given) -15.6%
CCN1c2ccccc2-c2nc(SCC(=O)NCc3ccccc3)ncc2S1(=O)=O -13.3%
Cc1ccc(NC(=O)Cn2cc(S(=O)(=O)N3CCCC3)c(S(=O)(=O)N3CCCC3)c2)cc1F -7.36%
Cc1ccccc1C(=O)Nc1ccc(OCc2cc(=O)n3ccccc3n2)cc1 -16.6%
CC(=O)c1cccc(Nc2nc(-c3cccc(C)c3)nc3ccccc23)c1 -0.977%
COc1cccc(C(=O)NCC(c2ccc(N(C)C)cc2)N2CCc3ccccc32)c1 (stereo not given) -14.5%
COc1cccc(NC(=O)CCN2CCN(c3ccccc3)CC2)c1 -16.3%
Cc1ccc(C)c(S(=O)(=O)c2nnn3c2nc(Nc2ccc(C)c(C)c2)c2ccccc23)c1 -3.42%
Cc1ccc(CCNC(=O)c2c[nH]c3ccc(S(=O)(=O)Nc4ccc(C)cc4C)cc3c2=O)cc1 -21.6%
Cc1c(Cl)cccc1NC(=O)C(CCS(C)(=O)=O)N1Cc2ccccc2C1=O (stereo not given) -18.3%
Cc1cccc(NC(=O)C(=O)NCCc2sc(-c3ccccc3)nc2C)c1C -15.1%
COc1ccc(-c2cn3c(n2)sc2cc(C(=O)NC4CCCCCC4)ccc23)cc1 -10.6%
CCS(=O)(=O)N1CC(=O)N(c2cc(C)ccc2C)C(C)(C(=O)NC2CCCCC2)C1 (stereo not given) -9.53%
Cc1ccc(Cl)cc1NC(=O)N1CCC2(CC1)Oc1ccccc1C(=O)N2Cc1ccccc1F -3.88%
COc1ccc(-n2nnc(-c3nsc(NC(=O)c4cccs4)n3)c2C)cc1OC -19.9%
CC1CCCN(c2c(S(=O)(=O)c3ccccc3)cnc3ccc(Cl)cc23)C1 (stereo not given) -0.0262%
CC(CNC(=O)c1cc(-c2ccccc2)n[nH]1)c1ccccc1 (stereo not given) -13.1%
Cc1ccc(S(=O)(=O)c2c(Nc3cc(C)ccc3C)sc(C(=O)c3ccc4c(c3)OCO4)c2N)cc1 -28.7%
CC(=O)c1c(C)oc2ccc(N(C(=O)Oc3ccccc3)S(=O)(=O)c3ccccc3)cc12 -23.6%
CCc1ccc(NC(=O)C(NS(=O)(=O)c2cccc3nsnc23)c2ccccc2)cc1 (stereo not given) -17.7%

Potency, inactive:
Cc1[nH]c(=O)c(C#N)cc1-c1ccncc1

From PubChem BioAssay AID1159614 (National Center for Advancing Translational Sciences (NCATS), 2016)
